Article PMC6212790
The other results are listed elsewhere or left out. At the low end of the ranking the order means little.
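Further: rank score from −0.5 (least bound) to 0.5 (best bound).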

The sequences below were run against T1, GST-Rok-C97-191 (UniProt O34857) (assay: protein binding microarray). Conditions: Rok is a gene silencer of Bacillus subtilis; high values mean tight binding; most listed sequences are background and not binding sites; double strand, one strand shown.
T1 sequence: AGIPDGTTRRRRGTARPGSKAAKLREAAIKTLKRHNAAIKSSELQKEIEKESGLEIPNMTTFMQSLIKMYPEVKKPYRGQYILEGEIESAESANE
Work on CTGACTGA yielded a binding signal of -0.196 E-score. In the case of AAGATGGG, the binding signal is reported as 0.188 E-score. For CGGCGACC, the binding signal was -0.367 E-score. GAACAGCA showed a binding signal of -0.0292 E-score. For CGTACTAC, the binding signal was 0.305 E-score. Work on GAGTCCGA yielded a binding signal of -0.152 E-score. In the case of CTGCCCAC, the binding signal is reported as -0.253 E-score. For GATTTTGC, the binding signal was 0.0453 E-score. For GTTCGTGA, the binding signal was 0.0204 E-score. Sequence AGCGCACC has a binding signal of -0.128 E-score. With ACAAGGGA the binding signal was -0.168 E-score. AAATTGGG gave a binding signal of 0.0128 E-score. With GTTACCAA the binding signal was 0.109 E-score. AAAGCTTT was tested, and the binding signal was 0.011 E-score. GAATAATC showed a binding signal of -0.0939 E-score. TGGCCCAA showed a binding signal of -0.287 E-score. Sequence AGACAATA has a binding signal of 0.0922 E-score. Work on CAACTGCA yielded a binding signal of 0.0818 E-score. Sequence CCACGATA has a binding signal of -0.0343 E-score. For AGCGTTGG, the binding signal was -0.154 E-score. With ACCACGTG the binding signal was -0.026 E-score. With CGACGAAC the binding signal was -0.0119 E-score. Work on CAAACTGG yielded a binding signal of -0.126 E-score. ATATTAGG showed a binding signal of 0.117 E-score. In the case of GAAATTGC, the binding signal is reported as 0.239 E-score. With AGGGCTAC the binding signal was -0.136 E-score. GGTTGTCA was tested, and the binding signal was -0.0877 E-score. Sequence ACTCTGTA has a binding signal of -0.0465 E-score. With CCGAAACG the binding signal was -0.189 E-score. Work on ATCTCAAA yielded a binding signal of 0.165 E-score. CAGCTGGA gave a binding signal of -0.139 E-score. For CACTAATG, the binding signal was 0.134 E-score. For AATCTTGG, the binding signal was 0.0215 E-score. In the case of ATTATAGA, the binding signal is reported as 0.318 E-score. AGGCTTTA was tested, and the binding signal was -0.0666 E-score. Sequence ACAAGTGA has a binding signal of 0.0744 E-score. In the case of CAGTAATA, the binding signal is reported as 0.29 E-score. TTCCTCAA showed a binding signal of 0.041 E-score. Sequence ATCTAGGA has a binding signal of 0.0645 E-score. For GGGTGGGA, the binding signal was -0.0405 E-score. In the case of ACTACAAG, the binding signal is reported as 0.137 E-score. In the case of ATCCTGTA, the binding signal is reported as 0.176 E-score. AGTAGTCC was tested, and the binding signal was 0.00719 E-score. Work on GGTATATA yielded a binding signal of 0.406 E-score. ATCACTAA was tested, and the binding signal was 0.0896 E-score. Work on CATTCGCA yielded a binding signal of -0.197 E-score. In the case of TAATTTAA, the binding signal is reported as 0.396 E-score. For AATCAATC, the binding signal was -0.079 E-score. Sequence CCCAGACC has a binding signal of -0.31 E-score. In the case of GCTTATAA, the binding signal is reported as 0.101 E-score. ATTTTGCC showed a binding signal of 0.0574 E-score. Work on TATGGACA yielded a binding signal of 0.042 E-score. GTTTAACA gave a binding signal of 0.0582 E-score. For AGCCCGCG, the binding signal was -0.35 E-score. GTACCAGA showed a binding signal of 0.0231 E-score. CAGCACAG showed a binding signal of -0.063 E-score. CCAGAGCC gave a binding signal of -0.226 E-score. Sequence AAGGATTG has a binding signal of -0.07 E-score. Sequence AGCACAAG has a binding signal of -0.0106 E-score. Sequence AATGCAGC has a binding signal of -0.146 E-score. Work on AAACATGA yielded a binding signal of 0.102 E-score. ATCCTTAG showed a binding signal of 0.108 E-score. CGTAAGGC was tested, and the binding signal was -0.192 E-score. CCTGGCAA gave a binding signal of -0.109 E-score. With CAGTGCAA the binding signal was -0.132 E-score. AAGTGCCA showed a binding signal of -0.136 E-score. In the case of AGTCCCAG, the binding signal is reported as -0.171 E-score. For CCACGCGG, the binding signal was -0.289 E-score. AGCGGCGC was tested, and the binding signal was -0.343 E-score. In the case of GGGGACAC, the binding signal is reported as -0.14 E-score. CTCCTTAC gave a binding signal of -0.067 E-score. ACCAGCGG gave a binding signal of -0.105 E-score. Work on CCTGGGCA yielded a binding signal of -0.246 E-score. Work on AGGACATC yielded a binding signal of -0.218 E-score. AGAGCTAA showed a binding signal of 0.148 E-score. TGGCGTAA showed a binding signal of 0.0802 E-score. Sequence ATGGCTCA has a binding signal of -0.061 E-score. AGACGAAT showed a binding signal of -0.195 E-score. For TAATCCCA, the binding signal was 0.0537 E-score. Sequence GAGGCGCA has a binding signal of -0.133 E-score. GCGTGTTA showed a binding signal of -0.0342 E-score. With GCTAGGAC the binding signal was -0.135 E-score. AAACTCGC was tested, and the binding signal was -0.018 E-score. CGTAGGTA was tested, and the binding signal was 0.336 E-score. In the case of AAGGGCAG, the binding signal is reported as -0.195 E-score. For CAGTTGAA, the binding signal was 0.0858 E-score. In the case of ATGTCCGC, the binding signal is reported as -0.0634 E-score. Sequence CCAGATGC has a binding signal of -0.278 E-score. Work on ACGTTACG yielded a binding signal of -0.0241 E-score. GCTCGTCA was tested, and the binding signal was -0.151 E-score. For ACCGGAAG, the binding signal was -0.166 E-score. For GCGCGTGA, the binding signal was -0.293 E-score. ATGGGCTA showed a binding signal of -0.0101 E-score. In the case of TCATATCA, the binding signal is reported as 0.0493 E-score. Sequence CAGATGGG has a binding signal of -0.0872 E-score. ACCCCGAT showed a binding signal of -0.108 E-score. In the case of GGCCTGCA, the binding signal is reported as -0.18 E-score. Sequence ACGAAGTG has a binding signal of 0.057 E-score. ATATCCTG showed a binding signal of 0.00586 E-score. In the case of AAATCATT, the binding signal is reported as 0.17 E-score. CCGGTGGC gave a binding signal of -0.144 E-score. ACGAACCG showed a binding signal of -0.0905 E-score. With AACAACCG the binding signal was -0.0775 E-score. GAATAACA gave a binding signal of -0.0158 E-score. CGGCTCAG gave a binding signal of -0.157 E-score. With CAGTACAC the binding signal was 0.00755 E-score. Sequence AGTGCGAA has a binding signal of -0.0952 E-score. ACGGTGTC gave a binding signal of -0.179 E-score. GTAAGGGA showed a binding signal of 0.0551 E-score. Sequence CCTGTTTA has a binding signal of -0.0563 E-score. ACAATCGA showed a binding signal of 0.0259 E-score. Work on CTTCATAA yielded a binding signal of 0.0906 E-score. GATCTCGA was tested, and the binding signal was 0.0929 E-score. ACCAAAGC gave a binding signal of -0.0869 E-score. Sequence ATCGGCTA has a binding signal of -0.0669 E-score. ATACGACA gave a binding signal of -0.0485 E-score. TATTTTAA showed a binding signal of 0.309 E-score. Work on AAAGGGGT yielded a binding signal of -0.157 E-score. Sequence GGCCTTCA has a binding signal of -0.25 E-score. In the case of ACTGAGAA, the binding signal is reported as -0.0376 E-score. AAGCAACT gave a binding signal of 0.179 E-score. Work on AGCAATAA yielded a binding signal of -0.108 E-score. In the case of GATCTCCC, the binding signal is reported as -0.165 E-score. CCTGGCGC was tested, and the binding signal was -0.266 E-score. With ACCGTGAT the binding signal was 0.034 E-score. For ATGTTTGA, the binding signal was 0.123 E-score. Work on ACTCAATC yielded a binding signal of 0.0834 E-score. Work on AACGAGTC yielded a binding signal of -0.0998 E-score. ATCATCGC showed a binding signal of -0.0163 E-score. Work on GATAGGCC yielded a binding signal of 0.00256 E-score. For AATACTGG, the binding signal was 0.136 E-score. CACAGAGA showed a binding signal of -0.0959 E-score. TAAGTGTA gave a binding signal of 0.186 E-score. For CCAGCAGA, the binding signal was -0.157 E-score. Work on CAATATTA yielded a binding signal of 0.204 E-score. CTGCAACA showed a binding signal of 0.0545 E-score. For AGCAGAAA, the binding signal was 0.146 E-score. Work on CGAGACGA yielded a binding signal of -0.0929 E-score. With AAGCGAGT the binding signal was -0.052 E-score. For ATCACTAC, the binding signal was 0.159 E-score. GGTAAACC was tested, and the binding signal was -0.0735 E-score. AGGCGCAA was tested, and the binding signal was -0.00123 E-score. CTTCTAAC was tested, and the binding signal was 0.00584 E-score. Work on ATAACCTC yielded a binding signal of 0.0745 E-score. ACCATTTG showed a binding signal of 0.000265 E-score. With ATGCTCAG the binding signal was -0.198 E-score. GTCCCGAC showed a binding signal of -0.0777 E-score. CATCCACG gave a binding signal of -0.13 E-score. ATGGCACA was tested, and the binding signal was -0.159 E-score. In the case of AGTCGTAG, the binding signal is reported as 0.0976 E-score. For CTCCTTGC, the binding signal was -0.184 E-score. CGCATCCC showed a binding signal of -0.335 E-score. GTACATCA gave a binding signal of 0.177 E-score. For TCACCGCA, the binding signal was -0.176 E-score. With ATATGTAA the binding signal was 0.28 E-score. In the case of AGATAGTG, the binding signal is reported as 0.174 E-score. With ATAGCTGG the binding signal was 0.0967 E-score. GCAGATTA gave a binding signal of 0.028 E-score. CCCGGTTA gave a binding signal of -0.0284 E-score. In the case of AGGTATGC, the binding signal is reported as 0.0845 E-score. In the case of GTTTTAAA, the binding signal is reported as 0.047 E-score. Work on CGAGCGAA yielded a binding signal of -0.106 E-score. Sequence AAGCACGT has a binding signal of 0.017 E-score. In the case of ATTAGCTA, the binding signal is reported as 0.318 E-score. Sequence CAGCGCTA has a binding signal of -0.0185 E-score. In the case of ACTTATAA, the binding signal is reported as 0.338 E-score. CCGTTTGC was tested, and the binding signal was 0.0204 E-score. ATTCTCCG showed a binding signal of 0.247 E-score. TATTTCAA was tested, and the binding signal was 0.177 E-score. Work on GTGATGCA yielded a binding signal of -0.132 E-score. Work on CTCTGGCA yielded a binding signal of -0.125 E-score. With ATCGACAT the binding signal was 0.0133 E-score.
